{"source": "PubChem BioAssay AID328", "about": "(DTP/NCI, 2004)", "system": "BDF1 mice, P388 leukemia ip, median survival T/C", "assay": "NCI In Vivo Anticancer Drug Screen. Data for tumor model P388 Leukemia (intraperitoneal) in B6D2F1 (BDF1) mice", "details": "endpoint: median survival time, higher = longer survival", "summary_of_the_method": "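Antitumour effect was judged in vivo: survival in drug-treated mice, normalised to that of vehicle-dosed controls, gives the reported T/C.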", "note": "Toxic doses and inconclusive results are not listed. Not every entry of the source has a single result; some have several. This is not the full list of results. An entry can have further records. The values listed for one entry repeat one measurement in other runs, samples, wells, individuals or studies."}
{"smiles": "COc1cc2cc3c4ccccc4cc[n+]3c(C)c2cc1OC", "note": "(tested in a mixture with another compound)", "values": [{"measurement": "T/C", "setting": "dose: 40.0 mg/kg/injection, schedule: Q04DX003 (ip), vehicle: saline", "value": "122 % of control and 157 % of control"}]}
{"smiles": "CC1(C)N=C(N)N=C(N)N1c1ccc(OCCCOc2ccc(S(=O)(=O)F)cc2)c(Cl)c1", "values": [{"measurement": "T/C", "setting": "dose: 18.75 mg/kg/injection, schedule: Q01DX009 (ip), vehicle: saline", "value": "120 % of control and 163 % of control"}]}
{"smiles": "C(CCC1CO1)CC1CO1", "note": "(stereo not given)", "values": [{"measurement": "T/C", "setting": "dose: 100.0 mg/kg/injection, schedule: Q04DX002 (ip), vehicle: saline with Tween-80", "value": "117 % of control and 153 % of control"}]}
{"smiles": "CCCCCCC[CH2][Sn](=[O])[CH2]CCCCCCC", "values": [{"measurement": "T/C", "setting": "dose: 50.0 mg/kg/injection, schedule: Q04DX003 (ip), vehicle: Klucel (hydroxypropylcellulose) (HPC)", "value": "123 % of control and 150 % of control"}, {"measurement": "T/C", "setting": "dose: 75.0 mg/kg/injection, schedule: Q04DX003 (ip), vehicle: Klucel (hydroxypropylcellulose) (HPC)", "value": "123 % of control and 150 % of control"}]}
